Measurements: PubChem BioAssay AID1508649 (National Center for Advancing Translational Sciences (NCATS), 2021)
Out of some 43,000 compounds screened, about 830 (1.9%) were called active. This list was built around the results that the source calls inconclusive (neither active nor inactive); the mix of calls is not that of the screen. Rule for the calls: active = clear falling dose curves in both reporters; inconclusive = both reporters move, but less clearly or upward; inactive = either reporter flat; the % is the NLuc reporter signal. Potencies of inconclusive entries are left out as doubtful fits.

Assay: Cell-based coincidence reporter assay to measure PMP22 gene transcription in S16 Pmp22-F2sN cells - Primary screen
Conditions: S16 Pmp22-F2sN Schwann cells (luciferase reporters placed in the Pmp22 gene), FLuc/NLuc coincidence luminescence, 24 h; measured here: NLuc reporter readout, at 57.5 µM (top of the series); activity change, negative = inhibition: at the top concentration
Outline: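 Schwann cells carrying the coincidence reporter were exposed to library compounds for 24 h at 37C, then lysed and read for FLuc and, after quenching, NLuc luminescence on a CCD imager.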
% is set by controls: 0 for no effect and ±100 for the full control effect; potency is the fitted concentration of half-maximal effect; tags give direction and shape of the fitted curve.

SMILES	Potency	activity change, negative = inhibition
CCOc1ccc(NC(=O)NCCCN2CCN(c3ccc(OC)cc3)CC2)cc1	inconclusive [phenotype inactive, partial curve, poor fit]	–
Cc1nn(C)c2c1c(-c1ccccc1)cc(=O)n2CC(=O)NC(C)(C)C	inconclusive [phenotype inactive, single point]	–
CCC(C)n1c(=N)c(S(=O)(=O)c2ccccc2)cc2c(=O)n3ccccc3nc21 (centres undefined)	inconclusive [phenotype inactive, partial curve]	–
CCOC(=O)c1ccccc1NC(=O)CSc1ncc2c(n1)-c1ccccc1N(CC)S2(=O)=O	inconclusive [phenotype inactive, partial curve]	–
O=C(c1ccc(CS(=O)c2ccccc2Cl)o1)N1CCN(c2ccccc2F)CC1 (centres undefined)	inconclusive [phenotype inactive, partial curve]	–
CCc1ccc(S(=O)(=O)c2cn(C)c3cc(N4CCN(CC)CC4)c(F)cc3c2=O)cc1	inconclusive [phenotype inactive, single point]	–
N#Cc1c(-c2ccccc2)cc(-c2ccccc2)nc1SCC(=O)Nc1ccc(Cl)cc1	inconclusive [phenotype inactive, single point]	–
Cc1ccc(C)c(NC(=O)Cn2c(=O)n(Cc3ccco3)c(=O)c3ccc(C(=O)NC4CCCC4)cc32)c1	inconclusive [phenotype inactive, single point]	–
Cc1ccc(Cl)cc1NC(=O)Cn1cc(S(=O)(=O)Cc2ccccc2Cl)c2ccccc21	inconclusive [phenotype inactive, single point]	–
CCCC(=O)Nc1cccc(-c2nc3cc(C)c(C)cc3o2)c1C	inconclusive [phenotype inactive, single point]	–
Fc1ccc(-n2ncc3c(Nc4ccc(Oc5ccccc5)cc4)ncnc32)cc1	inconclusive [phenotype inactive, single point]	–
CCc1ccccc1NC(=O)CCCN1C(=O)COc2ccc(C)cc21	–	inactive: -4.91%
CCc1cccc(NC(=O)c2c(C)oc3ncnc(N4CCCCC4)c23)c1	inconclusive [phenotype inactive, single point]	–
COc1ccc2[nH]cc(CCNC(=O)Nc3ccc(F)cc3)c2c1	inconclusive [phenotype inactive, single point]	–
CC1CCN(S(=O)(=O)c2ccc3c(c2)N(CC(=O)N2CCN(c4ccc(Cl)cc4)CC2)C(=O)CO3)CC1	inconclusive [phenotype inactive, single point]	–
Cc1ccc(S(=O)(=O)c2nc(-c3ccccc3)oc2N2CCCCCC2)cc1	inconclusive [phenotype inactive, single point]	–
Cc1cccc(OCC(=O)N(Cc2cccc(Cl)c2)Cc2ccco2)c1C	inconclusive [phenotype inactive, single point]	–
CC(C)S(=O)(=O)c1oc(-c2ccc(F)cc2)nc1S(=O)(=O)c1ccc(F)cc1	active: 2.05 µM	–
CC(=O)c1ccc(NC(=O)Cn2c(-n3nc(C)cc3C)nc(C)cc2=O)cc1	inconclusive [phenotype inactive, single point]	–
Cn1c(SCc2cc(=O)c3cc(Cl)ccc3[nH]2)nnc1-c1ccccc1	inconclusive [phenotype inactive, single point]	–
CC1CCN(S(=O)(=O)c2ccc3nc(NCc4ccccc4)ccc3c2)CC1	inconclusive [phenotype inactive, single point]	–
Cc1ccc(Cl)cc1N1CCN(C(=O)c2ccc(CS(=O)c3ccccc3)o2)CC1 (centres undefined)	active: 10.3 µM	–
Cc1cc(C)cc(Nc2cc(C(=O)NCCCN(C)C3CCCCC3)c3ccccc3n2)c1	active: 8.91 µM	–
COc1ccc(NS(=O)(=O)c2ccc(-c3cnc(C4CC4)o3)cc2)cc1Cl	inconclusive [phenotype inactive, single point]	–
COCCCNC(=O)c1sc2nc(C)c(C(=O)Nc3ccc(C)cc3C)c(-c3ccccc3Cl)c2c1N	inconclusive [phenotype inactive, single point]	–
COc1ccccc1Nc1c2c(nc3ccc(NC(=O)c4ccccc4F)cc13)CCCC2	inconclusive [phenotype inactive, single point]	–
COc1ccc(S(=O)(=O)N(CC(=O)Nc2ccccc2Cl)Cc2ccccc2)cc1	inconclusive [phenotype inactive, single point]	–

SMILES	Potency	activity change, negative = inhibition
CCn1c2c(c(=O)n3ncc(C(=O)N4CCN(c5ccc(C(C)=O)cc5)CC4)c13)CN(Cc1ccc(OC)cc1)CC2	inconclusive [phenotype inactive, single point]	–
O=C(Nc1ccc(F)cc1F)c1cc(S(=O)(=O)N2CCCCC2)c[nH]1	inconclusive [phenotype inactive, full curve, poor fit]	–
CCc1ccc(-n2nnc(-c3nc(-c4ccc(C)cc4)no3)c2N)cc1	–	inactive: -2.74%
CCOc1ccc(-c2nonc2NC(=O)c2oc3ccc(C)cc3c2C)cc1OCC	inconclusive [phenotype inactive, single point]	–
Cc1cccc(S(=O)(=O)c2cn(C)c3cc(N4CCN(c5ccc(F)cc5)CC4)c(F)cc3c2=O)c1	inconclusive [phenotype inactive, single point]	–
COc1ccc(C)cc1NC(=O)COCc1cc(-c2ccc(F)cc2)on1	inconclusive [phenotype inactive, single point]	–
CCc1nc2ccccc2n1CCCCOc1cccc(C)c1	inconclusive [phenotype inactive, single point]	–
CCN(CC)CCNC(=O)c1ccc(-c2nc(CN3CCc4ccccc43)c(C)o2)cc1	inconclusive [phenotype inactive, partial curve, poor fit]	–
Cc1ccc(CN2c3ccccc3-c3nc(SCC(=O)NCCc4ccccc4)ncc3S2(=O)=O)cc1	–	inactive: 2.81%
COc1ccc(-c2cc(OC(=O)c3ccccc3Cl)c3c(C)oc(C)c3c(=O)c2)cc1OC	inconclusive [phenotype inactive, partial curve]	–
CC(C)(C)OC(=O)N1CCC(c2c(C(=O)N3CCN(C(=O)c4ccco4)CC3)cnn2-c2cccc(Cl)c2)CC1	inconclusive [phenotype inactive, single point]	–
O=C(Cn1cc(SCc2cccc(Cl)c2)c2ccccc21)N1CCCCC1	inconclusive [phenotype inactive, single point]	–
CCOc1ccc(NC(=O)CC2C(=O)N(c3ccccc3)C(=O)N2CCc2sccc2C)cc1 (centres undefined)	inconclusive [phenotype inactive, single point]	–
CC1CCN(S(=O)(=O)c2cc(C(=O)N3CCN(c4cccc(Cl)c4)CC3)n(C)c2)CC1	inconclusive [phenotype inactive, single point]	–
Cc1ccc(CNC(=O)C2CCN(S(=O)(=O)c3ccc4nc5c(c(C(=O)O)c4c3)CC(C)CC5)CC2)cc1 (centres undefined)	inconclusive [phenotype inactive, single point]	–
Cc1cc2c(cc1NS(=O)(=O)c1ccc(NC(=O)CC(C)C)cc1)n(C)c(=O)c(=O)n2C	inconclusive [phenotype inactive, partial curve, poor fit]	–
CCc1ccccc1NC(=O)CSC1=Nc2ccccc2C2=NC(Cc3ccccc3)C(=O)N12 (centres undefined)	inconclusive [phenotype inactive, single point]	–
CCN(CC)C(=O)CSc1nc2cc3c(cc2c(=O)n1CCCCCC(=O)NCCc1ccc(OC)c(OC)c1)OCO3	inconclusive [phenotype inactive, single point]	–
Cc1c(Cl)cccc1N1C(N)=C(C#N)C(c2cc(CN3CCOCC3)cs2)C2=C1CCCC2=O (centres undefined)	active: 7.23 µM	–
O=C1N(Cc2cccc(C(F)(F)F)c2)c2ccccc2S(=O)(=O)N1c1cccc(Cl)c1	inconclusive [phenotype inactive, partial curve, poor fit]	–
O=C(Nc1ccc(F)cc1F)c1cc2c(=O)n3ccccc3nc2s1	–	inactive: 14.8%
CSc1ccc(CCNC(=O)c2ccc(CS(=O)(=O)c3ccc(Br)cc3)o2)cc1	inconclusive [phenotype inactive, single point]	–
CCOC(=O)c1sc2ccccc2c1S(=O)(=O)N1CCN(c2cccc(OC)c2)CC1	active: 6.26 µM	–
CCn1c(=O)cc(SCC(=O)NCc2ccccc2OC)c2ccccc21	inconclusive [phenotype inactive, partial curve]	–
CCc1cccc(NC(=O)C2CCC(CNS(=O)(=O)c3csc(C(N)=O)c3)CC2)c1 (centres undefined)	–	inactive: -5.53%
CC1CCN(c2oc(-c3ccc(COc4ccccc4)o3)nc2C#N)CC1	inconclusive [phenotype inactive, partial curve, poor fit]	–
COc1ccc(-c2cc(C(F)(F)F)nc(-n3nc(C(F)(F)F)cc3C)n2)cc1	inconclusive [phenotype inactive, single point]	–
